Patent US20060211075

Target: T1, peptide 23, Dap-substituted pyrene derivative at Y+3 (not fully specified)
T1 chain: EEEIYGEXEA

B1: Abl (protein)
chain: MLEICLKLVGCKSKKGLSSSSSCYLEEALQRPVASDFEPQGLSEAARWNSKENLLAGPSE[about 60 residues not written out]LEKHSWYHGPVSRNAAEYLLSSGINGSFLVRESESSPGQRSISLRYEGRVYHYRINTASDGKLYVSSESRFNTLAELVHHHSTVADGLITTLHYPAPKRNKPTVYGVSPNYDKWEMERTDITMKHKLGGGQYGEVYEGVWKKYSLTVAVKTLKEDTMEVEEFLKEAAVMKEIKHPNLVQLLGVCTREPPFYIITEFMTYGNLLDYLRECNRQEVNAVVLLYMATQISSAMEYLEKKNFIHRDLAARNCLVGENHLVKVADFGLSRLMTGDTYTAHAGAKFPIKWTAPESLAYNKFSIKSDVWAFGVLLWEIATYGMSPYPGIDLSQVYELLEKDYRMERPEGCPEKVYELMRACWQWNPSDRPSFAEIHQAFETMFQESSISDEVEKELGKQGVRGAVSTLLQAPELPTKTRTSRRAAEHRDTTDVPEMPHSKGQGESDPLDHEPAVSPLLPRKERGPPEGGLNEDERLLPKDKKTNLFSALIKKKKKTAPTPPKRSSSFREMDGQPERRGAGEEEGRDISNGALAFTPLDTADPAKSPKPSNGAGVPNGALRESGGSGFRSPHLWKKSSTLTSSRLATGEEEGGGSSSKRFLRSCSASCVPHGAKDTEWRSVTLPRDLQSTGRQFDSSTFGGHKSEKPALPRKRAGENRSDQVTRGTVTPPPRLVKKNEEAADEVFKDIMESSPGSSPPNLTPKPLRRQVTVAPASGLPHKEEAGKGSALGTPAAAEPVTPTSKAGSGAPGGTSKGPAEESRVRRHKHSSESPGRDKGKLSRLKPAPPPPPAASAGKAGGKPSQSPSQEAAGEAVLGAKTKATSLVDAVNSDAAKPSQPGEGLKKPVLPATPKPQSAKPSGTPISPAPVPSTLPSASSALAGDQPSSTAFIPLISTRVSLRKTRQPPERIASGAITKGVVLDSTEALCLAISRNSEQMASHSAVLEAGKNLYTFCVSYVDSIQQMRNKFAFREAINKLENNLRELQICPATAGSGPAATQDFSKLLSSVKEISDIVQR
Work on B1 yielded a Km of 90 µM and a Vmax of 0.4 µmol/min/mg.
